According to PubChem BioAssay (NCI):
Several values for one entry are separate records, joined by “and”; a condition that tells them apart may be missing. Identical values can stand only once.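 A five-concentration, 48-hour dose response in 96-well plates underlies each endpoint, interpolated linearly between surrounding concentrations. GI50 is the concentration that inhibits growth by half. TGI: total growth inhibition.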 Numbered stars: 1 amine (or outer) side, 2 acyl side, 3 side chain; on linkers, the order of the positions; unused ones are H or OH. Bridge positions count the residues as written; N and C are the ends. Square brackets hold non-standard residues; d marks the D form. Peptide text beside a SMILES is read from it. * marks the point of attachment. ξ: configuration not given here. Phe(3,5-F2) = N[C@@H](Cc1cc(F)cc(F)c1)C(=O)O; ξThr(3S) = C[C@H](O[*:3])C(N[*:1])C(=O)[*:2]; Pro(4R-Me) = C[C@H]1CN[C@H](C(=O)O)C1; Pip = O=C(O)[C@@H]1CCCCN1; X1 = Cc1ccc(N*)c(F)c1; CO = O=C([*:1])[*:2]

What follows are compounds tested on NCI-H322M lung (assay: inhibition of tumour cell growth, NCI panel, 48 h).

Row | Structure (SMILES) | GI50 | TGI
1 | Cc1ccc(-c2nnc(SCc3ccc(O)c4ncccc34)o2)cc1 | 1080 nM | > 100000 nM
2 | Cc1[nH]nc2ncc(C#Cc3cncc(C(=O)Nc4ccc(CN5CCN(C)CC5)c(C(F)(F)F)c4)c3)cc12 | 214 nM | –
3 | Cc1ccc(NC(=O)N[C@@H](Cc2cc(F)cc(F)c2)C(=O)NC2C(=O)N3CCC[C@H]3C(=O)N3CCCC[C@H]3C(=O)N[C@@H](C)C(=O)N3C[C@H](C)C[C@H]3C(=O)O[C@H]2C)c(F)c1 (stereo partly drawn) ({X1-CO}-[Phe(3,5-F2)][ξThr(3S)]P[Pip]A[Pro(4R-Me)]; ester 2-C) | 759 nM and 859 nM | 50000 nM and > 100000 nM
4 | C#C[C@]1(O)CC[C@H]2[C@@H]3CC=C4c5sc(Nc6cc(C)cc(C)c6)nc5CC[C@]4(C)[C@H]3CC[C@@]21C | 7070 nM | > 100000 nM
